This is an account of results in patent US20110312518.

The target in this data set is T1, Abltide EAIYAAPFAKKK (biotin-conjugated, Millipore #12-539).
T1 chain: EAIYAAPFAKKK

B1: Abl kinase (Millipore #[…]) (protein)
chain: EALQRPVASDFEPQGLSEAARWNSKENLLAGPSE[skipping about 60 residues]LEKHSWYHGPVSRNAAEYLLSSGINGSFLVRESESSPGQRSISLRYEGRVYHYRINTASDGKLYVSSESRFNTLAELVHHHSTVADGLITTLHYPAPKRNKPTVYGVSPNYDKWEMERTDITMKHKLGGGQYGEVYEGVWKKYSLTVAVKTLKEDTMEVEEFLKEAAVMKEIKHPNLVQLLGVCTREPPFYIITEFMTYGNLLDYLRECNRQEVNAVVLLYMATQISSAMEYLEKKNFIHRDLAARNCLVGENHLVKVADFGLSRLMTGDTYTAHAGAKFPIKWTAPESLAYNKFSIKSDVWAFGVLLWEIATYGMSPYPGIDLSQVYELLEKDYRMERPEGCPEKVYELMRACWQWNPSDRPSFAEIHQAFETMFQESSISDEVEKELGKQGVRGAVSTLLQAPELPTKTRTSRRAAEHRDTTDVPEMPHSKGQGESDPLDHEPAVSPLLPRKERGPPEGGLNEDERLLPKDKKTNLFSALIKKKKKTAPTPPKRSSSFREMDGQPERRGAGEEEGRDISNGALAFTPLDTADPAKSPKPSNGAGVPNGALRESGGSGFRSPHLWKKSSTLTSSRLATGEEEGGGSSSKRFLRSCSASCVPHGAKDTEWRSVTLPRDLQSTGRQFDSSTFGGHKSEKPALPRKRAGENRSDQVTRGTVTPPPRLVKKNEEAADEVFKDIMESSPGSSPPNLTPKPLRRQVTVAPASGLPHKEEAGKGSALGTPAAAEPVTPTSKAGSGAPGGTSKGPAEESRVRRHKHSSESPGRDKGKLSRLKPAPPPPPAASAGKAGGKPSQSPSQEAAGEAVLGAKTKATSLVDAVNSDAAKPSQPGEGLKKPVLPATPKPQSAKPSGTPISPAPVPSTLPSASSALAGDQPSSTAFIPLISTRVSLRKTRQPPERIASGAITKGVVLDSTEALCLAISRNSEQMASHSAVLEAGKNLYTFCVSYVDSIQQMRNKFAFREAINKLENNLRELQICPATAGSGPAATQDFSKLLSSVKEISDIVQR
As to B1, the Current limit of detection (kinase assay, 96-well plate format) is 10 pM.
